# Reference: the supplement of paper PMC10681739
# ± gives the standard deviation of the averaged measurements. In all, about 4,000 sequences were measured (“arbitrary fluorescence units”: median about 830, highest 2% from about 6,500 on). Most of the strongest results are missing from this list.
# Biological target: RUNX1 (UniProt Q01196)
# Assay: RUNX1 binding intensity (PBM fluorescence), RUNX1 alone (arbitrary fluorescence units); higher = stronger binding
# Details: RUNX1 concentration 2 nM; ETS1 concentration 0 nM
# Protocol: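 gcPBM on 36-bp genomic-derived probes (partner site mutated) containing one RUNX1 site and no ETS1 site. Recombinant human RUNX1 (2 nM) was incubated alone or with ETS1 (25 nM) and detected by anti-RUNX1 antibody fluorescence. Values are medians over 4 replicate spots (not normalised). The probes sit in constant array flanks that are not printed.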
# 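Further: Full-length recombinant human RUNX1 bound to double-stranded DNA microarray spots, detected with an Alexa488-labelled secondary antibody after the anti-RUNX1 primary, read as scanned spot fluorescence.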
# Sequence of UniProt Q01196 (Q01196 whole entry): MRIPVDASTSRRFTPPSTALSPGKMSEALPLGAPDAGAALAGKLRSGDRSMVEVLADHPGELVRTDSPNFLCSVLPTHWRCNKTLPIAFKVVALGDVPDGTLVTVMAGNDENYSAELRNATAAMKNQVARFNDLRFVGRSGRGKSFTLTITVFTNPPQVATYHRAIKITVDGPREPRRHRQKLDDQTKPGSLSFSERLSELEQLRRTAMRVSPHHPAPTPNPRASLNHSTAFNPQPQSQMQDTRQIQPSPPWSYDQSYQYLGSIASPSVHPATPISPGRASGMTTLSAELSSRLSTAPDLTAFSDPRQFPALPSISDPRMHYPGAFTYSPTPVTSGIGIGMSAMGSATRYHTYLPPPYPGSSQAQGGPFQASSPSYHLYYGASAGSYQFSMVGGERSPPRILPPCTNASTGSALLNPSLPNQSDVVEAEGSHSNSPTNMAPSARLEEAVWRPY
row,Sequence,RUNX1 binding intensity
1,CCCACCCGGCCCACAAAAAGCGGCACACCGAGCTCG,978
2,AGGCTCCGCCGCAGTGCCAGCTGGAACTTGGGGTTC,707
3,TGGCACCCCCTGCGGCAGTCCCGGCTCCGAGCAACC,836
4,TAGTCCAGATACCGCGGGGCACGTCGGAGGCTGATA,690
5,CTGGGGACCTGTGGTTTGCTGGCGGCAACAAGTGAT,1340
6,AATCATCAGGGAATTGCAAATCAAAACCACAATCAG,1320
7,AAACCCACACGGTCCTCCTTAAGGAGCTCCCGGGGC,753
8,GCTGACCGCGGAGGTCCTGTGGAGCTTGCTCTTCGG,1080
9,GCATCTGGGGGACGTTACACAACCACAGCTGTGCAG,787
10,CAGAGTGGTTTGATGGTTTTGTGTTAGTCTTCATGC,923
11,TATGGGGCCTGAAGCCATTCACCACAAACACTGTGT,793
12,ACAGGCTGCTGTGGTTGACCAAGCTCCCTTTGCTGG,819
13,TGAGAGGCAGTGGTTTCTCTGGCCAGGCAATTGAGG,715
14,CAGCTAGCCTGAAGAAGCTGCGGCGACAGCGTCCTG,730
15,TATCAGGCAAAGCGTCTCAGTCCTCCTTGTGGGCGG,725
16,AATACCCTGTGGTGGCCGCCGAAAGTGTCGCGGCGG,774
17,TCTGCTTCGCCGTACCGCACCCGGAATTCGGAGCTG,861
18,GAAATGAAGGCCGGGTGTCAGTAACCACAAACGAGC,1010
19,GACGTAAGCCGAGAGGCTCCCGTAAGCGGTCTTGAG,733
20,CAAAAGTGCTGCCTCTCGAGGGGTTGTGGTTCTTAC,754
21,GACATGCTCTGGAAGCTTGAGGTTTTAACGTTAAGG,743
22,CAGTGGCATGAAGAGGTCAGAAACCACTCGTGGTGG,749
23,GATGAAAAGGAGACAAACTTGAGCTGCGGCGATGGG,733
24,TCCCGTTCCACCGCGGAGCCGGCTGTTTGCCGAGCC,822
25,CCGCTTACGGCCTTCGCCCGGCTTACCCGCGTCGCA,1030

row,Sequence,RUNX1 binding intensity
1,GCACCACCGAAAGTAGGGCTCAACCACCGCTCATTT,864
2,ACCGTTCTGCGGCCGCCCTCGGGCACTTTCGGTCCG,906
3,GACTGTGGTGGAGAGAGAGGGGATGGGAGTTGTTTT,1040
4,TGCGCCGGGAGTGCATGAGCTGCCGATGTGGTGCTT,697
5,AGTCGGGAGCCATCTGCCCCAACTTGCGGTCTTCAC,892
6,GCAGCTTAGGCAGGGGCGGCTGACCACACTGGTCTA,769
7,TACAGCCTCCTTCACCCCACTTGTGGCCTGGGTTAC,857
8,CCCTTCTTCATGGGTCCTCCAATTGCTACACCGCGC,976
9,TGACTAGAGACCACACACATATGCTGCATTCTCAGA,804
10,CTATGCGGGAGGCGGGGACAGCGCTCCCGGACCAGG,775
11,TAAGCAGTGACCTCAAATTAATATAGGAGGTCACTG,671
12,CCTCACAGGGACTGCCTTCCCCGCGGTTCAGGAATC,941
13,CTGAGACACCCTGATAATTCTGTGGGTTACCCCAAA,810
14,GCTGTAGGCAATGTTATTCGCCGCGGTCAGGACAGG,771
15,CAGCCGACTTTCGGGGTGGGGCTTGCTGCCGCAGAG,760
16,CTGCGCGGCTGGAAGTCGGCGGTTTCCCAGACGACG,780
17,GGTGGCAACATGCTGGGGAGGGGAACCCACAGGGGA,851
18,CTTACCTACAGTGCCGCTTGCTGTGGTTTCAGTTAC,826
19,ATCAGAGGCGCCACAGACCAGGGGATTTGCTGTGGA,702
20,CCGCGCCTCCTCGCGCTGTGCGCAGCCGCAGACCGA,950
21,TGTCTGGCCGCGGTAAGGGCGGCAAGGGTCTAGGTA,799
22,CCCCGCCGCGGTTCCCCCTGACCGGCTTTCAGCTGG,991
23,CAGTGACCTCCTATATTAATTTGAGGTCACTGCTTA,867
24,TGCTGAAGAGGAACACGTGACGGTTGTGGCCCTTCT,634
25,CGGCGCTGCGGGCACCGAGTAAAACGCGGAGGCGGG,777

row,Sequence,RUNX1 binding intensity
1,GTCAGGCAGCTGTGGTCTTGCACGGAGGTCTTTAAT,784
2,TTGTGGTTTATACCCCATCTACTTTCAGCAAGGGTT,904
3,GTGTCTCCTCTTTGTTTTGGGGCTGTGGTTGCCACA,1100
4,GGCTTTTCAGGGATCCCTTTCGCCTCATCACCGCAG,791
5,ACGTCTGTTTACTGTGATTGAAACCGCAAGAAGAAG,9630
6,GCAATCTTGACCACAACATGGAGACAGGCAATCAAA,1540
7,GCTGCTTCAGGCCGCTGGTCGCAGGGCTGCGGGACT,636
8,TCTCTTTCTGAACAGGCAATTGCCTGTGGTCCAACA,971
9,CCAGCACTCCCACAAGCCGCCGAAAGTCAACTCTCC,1020
10,CAGTCAATGTGGTAAGCTCATTGCCTGGAATGGCAA,732
11,CCCAGCCCTTCATGCAGGGTCGCTTGTGGGTCGGGT,761
12,ACGAGGTTTCGTGCAGGCTCCAGCCGAGACCACATC,744
13,TTTGGGGTAACCCACAGAATTATCAGGGTGTCTCAG,761
14,CGGGACCGCGACGGGCCAGGTGACCTGAAGAGGCCG,719
15,TAGGAGCGTCTGCGGCGCGGGCGGAGCCCGGGTTCG,682
16,GCCGCGGTGCCTGCCGGGACAGCGAGTTCAGCCGGG,738
17,CACCTCCTACCTCCCCCCGCTGATAACCACCAACCC,2370
18,TTACGCAGTGGTTGGAGAGCGTTGGCACGAACCCAA,701
19,CCGCGGTATCTCAGCAGCCGCTGGGCACCCGGAGGA,1280
20,GTGTGAGCCACCGCGCCAAGCCACACTGCCTTCTGC,737
21,TTTCTGTGGCCGGGGAAATTGAGGTCACTTGCTGTC,754
22,GGTCACGTGACCACGGGGACCGAAAGTGGCGCCCGG,737
23,GCAGTGCAGCAAGTGCTTTGTGTGGTACAATCCCAA,782
24,CACGGAGCCACTTTCGGCGGCTGTGGGCGCAAAACC,769
25,TGCTTGCGGTCCCTCGGCCCGTTTTGCTGCTAGTGG,1090

row,Sequence,RUNX1 binding intensity
1,GACTGGACAACTTGCTGGTGGAAAACCGCGACTCTT,1170
2,CACCCAAGGCTATGCTTTTTTTTGGCAAGCCACATC,904
3,CCCGGACCCGCAGCTGCGCCTACAGACACTGCCTAG,1050
4,AGCGGTGTTTCAGGGTGTGAGGGCCCGCAGGAGCCG,670
5,TTCTTTCTTTGACCACAGATCACTGCCTCAGAAGCA,3140
6,CCTGAGAGATACGGCGCGCGTCTTCCACCACAATGC,845
7,ACATGAAGGAACTTGCTCAGGGCCACACCGCAGAGT,834
8,CCTGACCGCCTATCAAATCTTGCCACTGCCTGCTCG,1040
9,ACAGTTTAACCACTCTAAACCCCAACTCCCTCATCT,1350
10,AAAACCACATTGCCTGTGCTGCAGGCTGGAAAGCTG,879
11,GAGAAAGCCGCAGACACTGCTTACAGCTTTTCATGT,1110
12,GGGATCCTTCAGCTCCGGGTTAACCCCGACCGCGCC,697
13,GAGACTCCCGCAACCTTGGCCGTCTCCCCGGCTCCA,943
14,GCTTCTGAGGCAGTGCGTTCTGTGGGTAGGTGGAGT,805
15,GCGCCCTCCATGAAACGCCGCGGTTTACTGTCTGCC,949
16,GAAAAGCAGCGGTTTCCCTTTGAGCCTGAACAAGAT,902
17,GGTTGGGTGCGGTCCGTGAGGTTCGGGCCCAGCCCA,743
18,ACTTACCTCCCGACGTCACAGCCACCGAAACCACAG,1560
19,GCTGCTGGAAAAGGCGCCGAGGTAACCGCCTCACTT,858
20,GCGCTCCCTGCCAGCTTGGAGGATAACCGCCTACCG,780
21,CAGAAACGTCCCTCCTGCCGCCGCTTTGTGGTACCA,863
22,CTCATTGACATGAAGTCTAACCACAGGCTTAGGCCC,1360
23,TTGCGTCATTCCCGAGAGACTTTCGCGCCGCAGTTT,731
24,CAAGGGAGGGCGGTTACTAGGAGGTGAAAGGCGGAG,777
25,CTCTGGGAATTGTAGGCGTAGGGCGTCAGGCCGCAG,664

row,Sequence,RUNX1 binding intensity
1,CACCGCCGCAGTTCGCGGGAGCGCTCTTGCTGGGGC,794
2,AGGCTGCGACCCGCGGGCGGAGGCAGGGGGTGGCCT,726
3,AAGTTGATTCCCGGGTAGTCTGTGGTTTCCTAATCA,1320
4,GACATGAAGCCCGCGGCAGCCTCCGTGGTTGCAGAT,863
5,AATGTAGGAGATTCCACTGCATAATTTGTGGTAGTG,752.9 ± 6.7
6,GTGCCTTGTGGTCAGGTGGCTGGGCAGGGTGTTTCT,2240
7,CCCCGCGGCACTCTGGCACAGTCAGCTGACCGCAGA,1580
8,GGCCGAGGAGGGACCTGGTGTTTTGATGACCGCTGT,816
9,GCTGCACCGCACGGACAGGGACCCTGATGGAAAGCT,798
10,AACAGTCACATACGGGGCCGAGAGGAACCGCGAACG,862
11,GTTTTGCTGGTGGCCCGGCCATGCCTGAGGTTTCTC,861
12,CGGGCCACAAAATGGTGGAGGGGCAGCTTACGGCAG,786
13,GAGGACTTTCGGGTGCGTGTGATATCTGCGGGCCCG,648
14,GCAGCATTTGCTGACTTCTTCGCCCCTGTGGTTGCA,796
15,ATGACTCCAGCAAGATCCTCCTGTGACCACTGCCCC,956
16,CTTAAATGGGCAATGTAGGTGTGGTTAAGTCACAAA,1030
17,AGCGGATTCCAGACATAACAATCTACAGCGGTCTTA,745 ± 66
18,AAACATCATAGGAGGTGGATTTTGTGGTGAGAGACA,860 ± 15
19,GGCGCAAGTTGCGGAGTTTCTGTGTCCTTTTTCCTC,1000
20,TTGGATGTGGCTTGCCAAAAAAAAGCATAGCCTTGG,661
21,GAAACCTGAAGCGGCGGCTGTCCGCGGTGCCGGCTG,661
22,CGGCTAGGAGATAAAGAGCCTTCTCTCCGCGGTAGG,1850
23,CAAATTAGCCACAGGGTGGATAGGAGATGGCTAGGA,674
24,GGCCCTGGGCCGCAGCGGTAGCGACAGAAAGCGCCA,726
25,CAGAGAGCGGACCTCCGCGACGCGGGTAAGCCGGGC,674
